{"source": "PubChem BioAssay AID1476", "about": "(National Center for Advancing Translational Sciences (NCATS), 2009)", "note": "Hit rate of the full screen: of about 200,000 compounds, about 4,500 (2.2%) were called active. Inconclusive results, whose numbers are uncertain, are shown with a selection of clear calls. Calls come from the whole dose curve; as a rule, active = well fitted inhibition curve with a large enough effect; inconclusive = small, poorly fitted or top-dose-only effect, or effect the other way; inactive = flat fitted curve, though single readings scatter. A potency beside an inconclusive call is a rough fit, not a confirmed value. Potency is the fitted concentration of half-maximal effect; tags give direction and shape of the fitted curve.", "data": [{"target": "Cruzipain (Trypanosoma cruzi) (UniProt P25779)", "sequence (P25779 whole entry, looked up)": "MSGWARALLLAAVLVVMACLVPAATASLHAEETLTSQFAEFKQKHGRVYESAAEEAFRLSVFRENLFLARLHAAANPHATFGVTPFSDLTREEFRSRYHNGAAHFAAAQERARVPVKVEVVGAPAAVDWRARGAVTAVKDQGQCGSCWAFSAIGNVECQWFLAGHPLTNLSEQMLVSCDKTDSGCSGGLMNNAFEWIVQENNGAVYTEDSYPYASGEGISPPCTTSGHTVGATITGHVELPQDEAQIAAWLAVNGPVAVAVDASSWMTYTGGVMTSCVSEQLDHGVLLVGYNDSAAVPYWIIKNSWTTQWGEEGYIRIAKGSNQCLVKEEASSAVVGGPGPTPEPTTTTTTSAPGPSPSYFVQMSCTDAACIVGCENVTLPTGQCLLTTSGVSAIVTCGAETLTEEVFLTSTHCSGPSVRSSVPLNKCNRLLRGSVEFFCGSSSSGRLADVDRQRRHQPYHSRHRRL", "test": "qHTS Assay for Promiscuous and Specific Inhibitors of Cruzain (without detergent); note: nearly all actives have a fitted effect of over 40% in size;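 for max response, negative = inhibition: plate controls were enzyme without inhibitor for no effect and buffer without enzyme for full effect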", "conditions": "purified cruzain, Z-FR-AMC fluorescence, no detergent", "method_in_brief": "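Purified cruzain at 1.5 nM, pre-incubated 15 min with compound at room temperature in 100 mM sodium acetate pH 5.5, 5 mM DTT, 0.00005% Triton X-100. Reaction started with 2 uM Z-FR-AMC; AMC fluorescence increase over 60 s gives rate.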", "values": [{"compound": "COCCn1c(C(=O)N2CCCC2)cc2c1C[C@H]1CN(C(=O)c3ccccc3)[C@@](Cc3ccccc3)(C(=O)OC)[C@@H]21", "Potency": "inconclusive: 25.1 µM [activator, partial curve]"}, {"compound": "O=C(NCc1ccco1)c1nc2ccccc2s1", "max response, negative = inhibition": "inactive: -3.89%"}, {"compound": "COc1cc2cc(C(c3nnnn3Cc3ccc(F)cc3)N3CCCCCC3)c(=O)[nH]c2cc1OC", "note": "(stereo not drawn)", "Potency": "inconclusive: 39.8 µM [activator, single point]"}, {"compound": "COc1ccc(CCNC(=O)c2cn(C)c3ccc(S(=O)(=O)N(C)C4CCCCC4)cc3c2=O)cc1OC", "Potency": "inconclusive: 6.31 µM [activator, single point]"}, {"compound": "COc1ccc(OC)c(CCNC(=O)c2cnn(-c3ccccc3Cl)c2C2CCN(C(=O)OC(C)(C)C)CC2)c1", "Potency": "inconclusive: 31.6 µM [activator, single point]"}, {"compound": "O=C1OC(c2ccco2)=N/C1=C\\c1ccc(-c2cccc(C(F)(F)F)c2)o1", "Potency": "active: 12.6 µM"}, {"compound": "COc1ccc(NC(=O)c2c(C)oc3ccc(O)c(CN4CCCCCC4)c23)cc1Cl", "Potency": "inconclusive: 39.8 µM [inhibitor, single point]"}, {"compound": "COc1ccc(/C=C/c2nc(C#N)c(NCCc3ccccc3)o2)cc1OC", "Potency": "inconclusive: 2.51 µM [inhibitor, full curve, poor fit]"}, {"compound": "CC(C)(C)c1ccc(C(=O)NNc2cc(N3CCCCC3)nc(N3CCCCC3)n2)cc1", "Potency": "inconclusive: 39.8 µM [inhibitor, single point]"}, {"compound": "CC(C)C(=O)Nc1cccc(NC(=S)NC(=O)C(c2ccccc2)c2ccccc2)c1", "Potency": "inconclusive: 39.8 µM [inhibitor, single point]"}, {"compound": "COc1ccc(C)cc1NC(=O)c1ccc(=O)n(Cc2ccccc2)c1", "max response, negative = inhibition": "inactive: -5.14%"}, {"compound": "CC(C)CCNC(=O)C1CCN(c2nc3ccc(Cl)cc3[nH]2)CC1", "max response, negative = inhibition": "inactive: -16.7%"}, {"compound": "CCOC(=O)c1c(NC2OC(=O)c3c2ccc(OC)c3OC)sc(C(=O)OC(C)(C)C)c1C", "note": "(stereo not drawn)", "Potency": "inconclusive: 20 µM [activator, single point]"}, {"compound": "COc1cc2c(cc1OC)Cc1cc(OC)c(OC)cc1Cc1cc(OC)c(OC)cc1C2", "max response, negative = inhibition": "inactive: 6.71%"}, {"compound": "Cc1ccc(C2NC(c3ccc(C)cc3)C([N+](=O)[O-])C(C)(C)C2[N+](=O)[O-])cc1", "note": "(stereo not drawn)", "Potency": "inconclusive: 39.8 µM [inhibitor, single point]"}, {"compound": "Cc1ccc(-n2ncc3c(=O)[nH]c(SCC(=O)N4CCN(c5ccccc5)CC4)nc32)cc1", "Potency": "active: 25.1 µM"}, {"compound": "O=C(Nc1ccc2nc(SCC(=O)N3CCCC3)sc2c1)c1cccc(Cl)c1", "Potency": "inconclusive: 31.6 µM [activator, single point]"}, {"compound": "COc1ccc(-c2cc3nc(C4CCN(C(=O)OC(C)(C)C)CC4)c(C(=O)O)cn3n2)cc1", "Potency": "inconclusive: 7.94 µM [activator, full curve]"}, {"compound": "CC1=Nc2cc(C(=O)NCCc3ccccc3)ccc2Sc2c(C)ccc(C)c21", "Potency": "inconclusive: 31.6 µM [inhibitor, single point]"}, {"compound": "Cc1cccc(Cn2ccc(-c3ccc(Cl)cc3)c(C#N)c2=O)c1", "Potency": "inconclusive: 31.6 µM [inhibitor, single point]"}, {"compound": "O=C(NCc1ccc(Cl)cc1)c1cc(-c2ccco2)on1", "Potency": "inconclusive: 39.8 µM [inhibitor, single point]"}, {"compound": "Cc1sc2ncn(CC(=O)N3CCN(c4ccc(Cl)cc4)CC3)c(=O)c2c1S(=O)(=O)N1CCN(c2ncccn2)CC1", "Potency": "inconclusive: 10 µM [activator, partial curve, poor fit]"}, {"compound": "COc1ccccc1NC(=S)N(CCc1c(C)[nH]c2ccccc12)Cc1cccs1", "Potency": "inconclusive: 39.8 µM [inhibitor, single point]"}, {"compound": "Cc1oc(-c2ccccc2)nc1CSc1nnc(C)n2c1cc1sccc12", "max response, negative = inhibition": "inactive: -9.5%"}, {"compound": "CCOCCCNC(=O)CCC(=O)NNc1nc2ccccc2c2nc(-c3ccccc3)nn12", "Potency": "inconclusive: 39.8 µM [activator, single point]"}, {"compound": "COc1ccc(-c2oc3ncnc(NCCCN4CCOCC4)c3c2-c2ccc(OC)cc2)cc1", "Potency": "inconclusive: 25.1 µM [activator, partial curve]"}, {"compound": "Cc1ccc(C)c(NC(=O)c2cc3c([nH]c4ccccc43)c(C)n2)c1", "Potency": "active: 7.94 µM"}, {"compound": "COC(=O)c1cc(Cl)c(NC(=O)/C=C/c2ccc(OC)c(OC)c2)cc1OC", "Potency": "inconclusive: 15.8 µM [activator, partial curve]"}, {"compound": "Oc1ccc2ccccc2c1Cc1c(O)ccc2ccccc12", "max response, negative = inhibition": "inactive: -5.26%"}, {"compound": "Cc1ccc2nc(NC(=O)C3CCN(S(=O)(=O)c4cccs4)CC3)sc2c1", "Potency": "inconclusive: 39.8 µM [inhibitor, single point]"}, {"compound": "COC(=O)c1c(NC(=O)C2CC(=O)NN2Cc2ccccc2)sc(C)c1C", "note": "(stereo not drawn)", "Potency": "inconclusive: 39.8 µM [activator, single point]"}, {"compound": "Nc1c(-c2nc(-c3cccs3)no2)nnn1-c1cccc(F)c1", "max response, negative = inhibition": "inactive: -0.78%"}, {"compound": "CCc1ccc(NC(=O)c2ccc3oc(=O)n(Cc4ccccc4)c3c2)cc1", "max response, negative = inhibition": "inactive: 29.7%"}, {"compound": "Cc1ccc(C)c(CN2C(=O)c3ccccc3S(=O)(=O)c3ccc(C(=O)N4CCCC4)cc32)c1", "Potency": "inconclusive: 39.8 µM [activator, single point]"}, {"compound": "Cc1cc(NC2C3CC4CC(C3)CC2C4)n2nnnc2n1", "note": "(stereo not drawn)", "Potency": "inconclusive: 31.6 µM [inhibitor, single point]"}, {"compound": "CCOc1ccc(OCC)c(NC(=O)C(NS(=O)(=O)c2ccc(Br)s2)c2ccccc2)c1", "note": "(stereo not drawn)", "Potency": "active: 10 µM"}, {"compound": "Cc1cc(Cl)c(S(=O)(=O)N2CCN(c3ccc(F)cc3)CC2)cc1OCC(=O)NC1CCCCC1", "Potency": "inconclusive: 20 µM [inhibitor, single point]"}, {"compound": "Cc1cc(N)ccc1N1CCCC1", "Potency": "active: 15.8 µM"}, {"compound": "O=C(/C=C/c1ccco1)NC(=S)Nc1cccc(-c2nc3ccccc3o2)c1", "Potency": "active: 10 µM"}, {"compound": "COc1ccc(N=Cc2nc(-c3ccccc3)oc2OC(=O)c2ccccc2)cc1", "Potency": "active: 15.8 µM"}, {"compound": "Cc1ccc(NC(=O)Cc2ccc([N+](=O)[O-])cc2)c(Br)c1", "Potency": "inconclusive: 25.1 µM [inhibitor, single point]"}, {"compound": "COc1ccccc1-c1nnc2n(CCc3ccccc3)c(=O)c3ccccc3n12", "max response, negative = inhibition": "inactive: -0.4%"}, {"compound": "Cc1ccc(-c2nnc(NC(=O)c3ccc4c(c3)OCCO4)o2)c(C)c1", "max response, negative = inhibition": "inactive: 0.107%"}, {"compound": "Cc1c(/C=C/C(=O)c2cccs2)cnn1C", "Potency": "inconclusive: 5.01 µM [inhibitor, single point]"}, {"compound": "O=C(c1ccco1)N1CCN(c2c(-c3ccccc3)c3cc(Cl)ccc3[nH]c2=O)CC1", "Potency": "inconclusive: 25.1 µM [activator, partial curve]"}, {"compound": "C[C@H]1O[C@@H](O[C@H]2[C@@H](O)C[C@H](O[C@H]3[C@@H](O)C[C@H](O[C@H]4CC[C@]5(C)C6CC[C@]7(C)[C@@H](C8=CC(=O)OC8)CC[C@]7(O)C6CC[C@@H]5C4)O[C@@H]3C)O[C@@H]2C)C[C@H](O)[C@@H]1O", "note": "(stereo partly drawn)", "Potency": "inconclusive: 2 µM [activator, full curve, poor fit]"}, {"compound": "COc1ccc(-c2noc(CN3CCN(c4ccccc4F)CC3)n2)cc1OC", "Potency": "inconclusive: 31.6 µM [activator, single point]"}, {"compound": "Cc1ccc(N2CCN(C(=O)NCc3noc4ccccc34)CC2C)cc1", "note": "(stereo not drawn)", "max response, negative = inhibition": "inactive: -8.01%"}, {"compound": "CN1/C(=C\\C=Nc2ccccc2)C(C)(C)c2ccccc21", "max response, negative = inhibition": "inactive: -1.33%"}, {"compound": "COc1ccccc1N1CCN(C(=O)c2cnn(-c3ccc(C)c(C)c3)c2C2CCN(C(=O)OC(C)(C)C)CC2)CC1", "Potency": "inconclusive: 3.98 µM [activator, single point]"}, {"compound": "COc1ccccc1N1CCN(C(=O)Cn2nc(C(F)(F)F)c3c2CCC3)CC1", "Potency": "inconclusive: 25.1 µM [activator, single point]"}, {"compound": "COc1ccccc1CNC(=O)Nc1cccs1", "Potency": "inconclusive: 31.6 µM [inhibitor, single point]"}, {"compound": "Cc1cc(N2CCN(c3cccc(C(F)(F)F)c3)CC2)n2ncnc2n1", "Potency": "inconclusive: 20 µM [activator, single point]"}, {"compound": "Cc1cccc(C(=O)O)c1C[C@H]1NCC[C@H]2c3ccccc3N[C@@H]12", "max response, negative = inhibition": "inactive: -5.19%"}, {"compound": "CCC(C)C(NC(=O)c1ccccc1NC(=O)c1ccco1)C(=O)NC1CCCCC1", "note": "(stereo not drawn)", "Potency": "inconclusive: 12.6 µM [activator, partial curve]"}, {"compound": "COc1ccccc1CNC(=O)COc1cc(=O)n(C)c2ccccc12", "max response, negative = inhibition": "inactive: -1.59%"}, {"compound": "Cc1ccc2c(n1)sc1c(-c3ccc(Br)cc3)c(C#N)c(N)nc12", "Potency": "inconclusive: 39.8 µM [inhibitor, single point]"}, {"compound": "O=[N+]([O-])c1cccc(C2Nc3cccc4cccc(c34)N2)c1", "Potency": "inconclusive: 39.8 µM [inhibitor, single point]"}, {"compound": "CCOc1ccc(C(=O)CSc2nnc3cc(C)c4ccccc4n23)cc1", "Potency": "inconclusive: 39.8 µM [activator, single point]"}, {"compound": "COc1ccc(N(CC(=O)NC2CCCCCC2)S(=O)(=O)c2c(C)nn(C)c2C)cc1", "Potency": "inconclusive: 31.6 µM [activator, partial curve]"}, {"compound": "Cc1cc(OCC(=O)Nc2cc(-c3nc4ccccc4[nH]3)ccc2C)ccc1Cl", "Potency": "inconclusive: 39.8 µM [inhibitor, single point]"}, {"compound": "CCc1sc(Nc2ccc(Cl)cc2)nc1-c1cc2cccc(OC)c2oc1=O", "Potency": "inconclusive: 39.8 µM [inhibitor, single point]"}, {"compound": "CCOC(=O)N1CCN(C2CC(=O)N(c3ccc(Oc4ccccc4)cc3)C2=O)CC1", "note": "(stereo not drawn)", "Potency": "inconclusive: 39.8 µM [activator, single point]"}]}]}
